Results taken from PMC11500415, “Chemical inhibition of stomatal differentiation by perturbation of the master-regulatory bHLH heterodimer via an ACT-Like domain” (Nature Communications, 2024).
Results are given in words; binding and its absence hold for the method and conditions named. For some of these results: In cells and extracts the contact can be indirect. Some results given as binding are weak or reduced against the parent protein; the word gives no strength. For some of these results: Sequences can lack the tags named with a protein. Each block holds one binder with its values, some of them ahead of it.

How the values were obtained:
[1] = target: T1, FAMA-nYFP (Arabidopsis thaliana) (UniProt Q56YJ8); experiment: split reporter; ratiometric BiFC in N. benthamiana leaves, split EYFP, H2B-mScarlet-I3 as reference; leaf discs in mock (DMSO)
T1 sequence: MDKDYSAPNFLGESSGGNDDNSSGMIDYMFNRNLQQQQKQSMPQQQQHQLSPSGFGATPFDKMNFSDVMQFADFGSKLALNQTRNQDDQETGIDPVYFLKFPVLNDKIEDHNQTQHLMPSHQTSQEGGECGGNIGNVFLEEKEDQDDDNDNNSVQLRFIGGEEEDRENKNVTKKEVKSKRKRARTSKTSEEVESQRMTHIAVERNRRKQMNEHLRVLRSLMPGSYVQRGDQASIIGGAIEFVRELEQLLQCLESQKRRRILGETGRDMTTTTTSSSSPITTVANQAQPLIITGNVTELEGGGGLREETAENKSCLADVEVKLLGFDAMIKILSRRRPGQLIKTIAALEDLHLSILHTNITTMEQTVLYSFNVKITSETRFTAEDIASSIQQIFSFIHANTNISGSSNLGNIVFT

[2] = target: T2, MUTE-nYFP (Arabidopsis thaliana) (UniProt Q9M8K6); experiment: as above
T2 sequence: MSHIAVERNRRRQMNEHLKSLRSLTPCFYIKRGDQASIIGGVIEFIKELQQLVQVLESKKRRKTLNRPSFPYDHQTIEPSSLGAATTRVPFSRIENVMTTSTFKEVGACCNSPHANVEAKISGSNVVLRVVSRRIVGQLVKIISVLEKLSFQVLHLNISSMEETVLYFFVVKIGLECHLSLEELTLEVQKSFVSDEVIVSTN

[3] = target: T3, SPCH-nYFP (Arabidopsis thaliana) (UniProt Q700C7); experiment: as above
T3 sequence: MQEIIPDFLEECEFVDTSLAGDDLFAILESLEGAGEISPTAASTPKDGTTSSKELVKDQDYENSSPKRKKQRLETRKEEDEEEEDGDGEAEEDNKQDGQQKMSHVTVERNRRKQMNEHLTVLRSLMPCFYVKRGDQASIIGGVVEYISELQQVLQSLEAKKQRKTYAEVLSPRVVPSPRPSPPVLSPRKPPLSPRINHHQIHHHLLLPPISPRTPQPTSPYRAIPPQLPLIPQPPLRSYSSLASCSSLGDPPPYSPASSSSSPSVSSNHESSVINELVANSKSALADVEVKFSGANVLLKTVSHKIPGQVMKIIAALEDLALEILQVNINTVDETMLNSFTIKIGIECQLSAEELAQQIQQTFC

[4] = target: T1, FAMA-nYFP (Arabidopsis thaliana); experiment: split reporter; ratiometric BiFC in N. benthamiana leaves, split EYFP, H2B-mScarlet-I3 as reference; leaf discs in 100 µM Stomidazolone for 1 day
[5] = target: T2, MUTE-nYFP (Arabidopsis thaliana); experiment: as above
[6] = target: T3, SPCH-nYFP (Arabidopsis thaliana); experiment: as above
FAMA-nYFP (A. thaliana) [7] = target: T4, FAMA-nYFP (A. thaliana) (UniProt Q56YJ8); experiment: split reporter; ratiometric BiFC in N. benthamiana leaves, nYFP and cYFP fusions with H2B-mScarlet-I3 as reference; leaf disks treated with 100 µM Stomidazolone for 1 day
T4 sequence: T1 sequence

MUTE-nYFP (A. thaliana) [8] = target: T5, MUTE-nYFP (A. thaliana) (UniProt Q9M8K6); experiment: as above
T5 sequence: T2 sequence

SPCH-nYFP (A. thaliana) [9] = target: T6, SPCH-nYFP (A. thaliana) (UniProt Q700C7); experiment: as above
T6 sequence: T3 sequence

FAMA-nYFP (A. thaliana) [10] = target: T4, FAMA-nYFP (A. thaliana); experiment: split reporter; ratiometric BiFC in N. benthamiana leaves, nYFP and cYFP fusions with H2B-mScarlet-I3 as reference; leaf disks in mock (DMSO) or 100 µM Stomidazolone for 1 day
MUTE-nYFP (A. thaliana) [11] = target: T5, MUTE-nYFP (A. thaliana); experiment: as above
SPCH-nYFP (A. thaliana) [12] = target: T6, SPCH-nYFP (A. thaliana); experiment: as above
[13] = target: T7, MUTE, yeast two-hybrid bait (DB fusion) (A. thaliana) (UniProt Q9M8K6); experiment: two-hybrid; Matchmaker system, yeast AH109, bait pGBKT7 and prey pGADT7; 10-fold serial dilutions on selection media with 1 mM 3-AT, with or without 50 µM SIM3* (7)
T7 sequence: T2 sequence

[14] = target: T8, recombinant MUTE (1-202), as used in ITC (A. thaliana) (UniProt Q9M8K6); experiment: ITC; Malvern PEAQ-ITC, 30 °C, PBS pH 7.4, 2% DMSO, 1 mM DTT; in presence of the analog AYSJ1059 (5); both purified
T8 sequence: T2 sequence

[15] = target: T8, recombinant MUTE (1-202), as used in ITC (A. thaliana); experiment: ITC; Malvern PEAQ-ITC, 30 °C, PBS pH 7.4, 2% DMSO, 1 mM DTT; in presence of the analog AYSJ1061 (6); both purified
[16] = target: T9, recombinant MUTE (1-202), as used in BLI (A. thaliana) (UniProt Q9M8K6); experiment: BLI; Octet Red96, anti-GST probes, 30 °C, 1× PBS, 2% DMSO, 0.02% Tween20; in presence of the analog AYSJ1059 (5); both purified
T9 sequence: T2 sequence

[17] = target: T9, recombinant MUTE (1-202), as used in BLI (A. thaliana); experiment: BLI; Octet Red96, anti-GST probes, 30 °C, 1× PBS, 2% DMSO, 0.02% Tween20; in presence of the analog AYSJ1061 (6); both purified
[18] = target: T10, MUTE, yeast two-hybrid fusion (Arabidopsis thaliana) (UniProt Q9M8K6); experiment: two-hybrid; Matchmaker Gal4 system, yeast AH109; growth on SD -Trp -Leu -His with 3-AT (1 mM) and quantitative α-galactosidase assay; with 0, 10, 50, 100 μM Stomidazolone (diminishes, dose-dependent) or SIM3* (no effect)
T10 sequence: T2 sequence

binding [1]: binds
binding [2]: binds
binding [3]: binds
binding (FAMA-nYFP (A. thaliana) [10]): binds
binding (MUTE-nYFP (A. thaliana) [11]): binds
binding (SPCH-nYFP (A. thaliana) [12]): binds
B1: SCRM2-cYFP (protein, UniProt Q9LPW3 1-450)
chain: MNSDGVWLDGSGESPEVNNGEAASWVRNPDEDWFNNPPPPQHTNQNDFRFNGGFPLNPSENLLLLLQQSIDSSSSSSPLLHPFTLDAASQQQQQQQQQQEQSFLATKACIVSLLNVPTINNNTFDDFGFDSGFLGQQFHGNHQSPNSMNFTGLNHSVPDFLPAPENSSGSCGLSPLFSNRAKVLKPLQVMASSGSQPTLFQKRAAMRQSSSSKMCNSESSSEMRKSSYEREIDDTSTGIIDISGLNYESDDHNTNNNKGKKKGMPAKNLMAERRRRKKLNDRLYMLRSVVPKISKMDRASILGDAIDYLKELLQRINDLHTELESTPPSSSSLHPLTPTPQTLSYRVKEELCPSSSLPSPKGQQPRVEVRLREGKAVNIHMFCGRRPGLLLSTMRALDNLGLDVQQAVISCFNGFALDVFRAEQCQEDHDVLPEQIKAVLLDTAGYAGLV
binding [4]: no binding (condition: with 100 µM Stomidazolone)
binding [5]: no binding (condition: with 100 µM Stomidazolone)
binding [6]: no binding (condition: with 100 µM Stomidazolone)
binding (FAMA-nYFP (A. thaliana) [7]): no binding (condition: with 100 µM Stomidazolone)
binding (MUTE-nYFP (A. thaliana) [8]): no binding (condition: with 100 µM Stomidazolone)
binding (SPCH-nYFP (A. thaliana) [9]): no binding (condition: with 100 µM Stomidazolone)

binding [13]: binds
B2: SCRM, yeast two-hybrid prey (AD fusion) (protein, UniProt Q9LSE2 1-494)
chain: MGLDGNNGGGVWLNGGGGEREENEEGSWGRNQEDGSSQFKPMLEGDWFSSNQPHPQDLQMLQNQPDFRYFGGFPFNPNDNLLLQHSIDSSSSCSPSQAFSLDPSQQNQFLSTNNNKGCLLNVPSSANPFDNAFEFGSESGFLNQIHAPISMGFGSLTQLGNRDLSSVPDFLSARSLLAPESNNNNTMLCGGFTAPLELEGFGSPANGGFVGNRAKVLKPLEVLASSGAQPTLFQKRAAMRQSSGSKMGNSESSGMRRFSDDGDMDETGIEVSGLNYESDEINESGKAAESVQIGGGGKGKKKGMPAKNLMAERRRRKKLNDRLYMLRSVVPKISKMDRASILGDAIDYLKELLQRINDLHNELESTPPGSLPPTSSSFHPLTPTPQTLSCRVKEELCPSSLPSPKGQQARVEVRLREGRAVNIHMFCGRRPGLLLATMKALDNLGLDVQQAVISCFNGFALDVFRAEQCQEGQEILPDQIKAVLFDTAGYAGMI

binding [1]: binds
binding [2]: binds
binding [3]: binds
binding (SPCH-nYFP (A. thaliana) [12]): binds
B3: SCRM-cYFP (protein, UniProt Q9LSE2 1-494)
chain: B2 chain

binding [14]: binds
binding [15]: binds
binding [16]: binds
binding [17]: binds
B4: recombinant SCRM (1-494) (protein, UniProt Q9LSE2 1-494)
chain: B2 chain

binding [18]: binds
B5: SCREAM (SCRM), yeast two-hybrid fusion (protein, UniProt Q9LSE2 1-494)
chain: B2 chain
